Results from PubChem BioAssay AID1768 (National Center for Advancing Translational Sciences (NCATS), 2009).
Hit rate of the full screen: of about 270,000 compounds, about 620 (0.23%) were called active. The shares of active, inactive and inconclusive entries below differ from those in the screen. The call rests on the fitted dose curve; in most records, active means well fitted inhibition curve with a large enough effect in the polarisation, with a control signal flat (not every such curve was filed as active); inconclusive means small, poorly fitted or top-dose-only effect, or effect the other way, or a change in a side signal; inactive means no such curve, though single readings can be large or run the other way; the % refers to the polarisation. Potencies beside an inconclusive call are fits to weak or partial responses and may not hold up. “Side channel” marks fits to a control or component signal instead of the main read-out.
Potency means the concentration at half of the fitted maximal effect; tags describe the fitted curve by direction and shape or compound fluorescence and quenching.
Wherever FP activity change, negative = inhibition is given: % of control where 0% means no effect.

The compounds below were run against Menin (Homo sapiens) (UniProt O00255) (assay: qHTS Assay for Inhibitors Targeting the Menin-MLL Interaction in MLL Related Leukemias: Competition With Texas Red Labeled MLL-derived Mutant Peptide). Details: fluorescence polarization; FP activity change, negative = inhibition: at 61.6 µM (top of the series).
Sequence of UniProt O00255 (O00255 whole entry, looked up): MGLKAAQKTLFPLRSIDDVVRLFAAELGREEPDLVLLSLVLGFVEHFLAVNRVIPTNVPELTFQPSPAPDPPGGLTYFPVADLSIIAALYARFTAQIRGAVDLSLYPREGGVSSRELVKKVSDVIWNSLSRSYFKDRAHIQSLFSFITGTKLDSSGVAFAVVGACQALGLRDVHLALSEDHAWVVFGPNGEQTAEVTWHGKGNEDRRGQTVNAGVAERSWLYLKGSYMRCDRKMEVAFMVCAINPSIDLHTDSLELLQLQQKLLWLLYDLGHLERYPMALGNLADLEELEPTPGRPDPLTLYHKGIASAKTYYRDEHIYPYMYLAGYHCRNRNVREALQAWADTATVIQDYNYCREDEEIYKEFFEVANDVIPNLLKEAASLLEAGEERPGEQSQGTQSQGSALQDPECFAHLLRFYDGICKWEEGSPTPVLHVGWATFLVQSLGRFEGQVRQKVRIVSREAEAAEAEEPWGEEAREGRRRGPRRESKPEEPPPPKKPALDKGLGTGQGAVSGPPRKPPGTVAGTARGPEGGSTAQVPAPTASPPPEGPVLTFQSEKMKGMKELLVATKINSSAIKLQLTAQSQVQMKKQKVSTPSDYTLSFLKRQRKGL
With `COc1ccc(C(=O)Nc2ccccc2)cc1NC(=O)c1ccc([N+](=O)[O-])cc1` the Potency was inconclusive: 15.8 µM [quencher, side channel, partial curve].
`N#CCCN1CCN(C(=S)c2ccc(-c3ccc(Cl)c(Cl)c3)o2)CC1` was tested, and the Potency was inconclusive: 31.6 µM [quencher, side channel, single point].
In the case of `Cc1ccccc1Nc1nnc(SCC(=O)Nc2ccccc2[N+](=O)[O-])s1`, the Potency is reported as inconclusive: 6.31 µM [quencher, side channel, partial curve].
`CC1=NN(C(N)=S)C(=O)C1N=Nc1ccc(C)cc1C` (centres undefined) was tested, and the Potency was inconclusive: 31.6 µM [quencher, side channel, single point].
`Oc1ccccc1-c1nc(NCc2ccco2)c2ccccc2n1` was tested, and the Potency was inconclusive: 10 µM [quencher, side channel, partial curve].
`CCCCc1cc(=O)oc2cc(O)cc(O)c12` was tested, and the Potency was inconclusive: 28.2 µM [quencher, side channel, single point].
With `COc1ccc(OC)c(NC(=O)c2cc3n(n2)C(C(F)(F)F)CC(c2ccc4c(c2)OCO4)N3)c1` (centres undefined) the Potency was inconclusive: 10 µM [quencher, side channel, partial curve].
For `Cc1ccc2nc(N3C(=O)C(O)=C(C(=O)c4ccco4)C3c3ccc(O)cc3)sc2c1` (centres undefined), the Potency was inconclusive: 12.6 µM [quencher, side channel, partial curve].
In the case of `Cc1ccc(Oc2ccc(S(=O)(=O)N3CCOCC3)cc2C(N)=O)c(-n2nc3ccccc3n2)c1`, the Potency is reported as inconclusive: 3.98 µM [inhibitor, partial curve].
`Cc1ccc(NC(=O)c2ccc(OC(=S)N3CCOCC3)cc2)cc1` was tested, and the Potency was inconclusive: 39.8 µM [inhibitor, single point].
In the case of `O=C1NN(c2ccccc2)C(=O)/C1=C\c1ccccc1`, the Potency is reported as inconclusive: 28.2 µM [quencher, side channel, single point].
With `COc1cc(C(=O)N/N=C/c2cc([N+](=O)[O-])cs2)cc(OC)c1OC` the “FP activity change, negative = inhibition” value was inactive: -3.1%.
With `CCOC(=O)c1sc(C)c2c1NC1(CCCCCC1)NC2=O` the “FP activity change, negative = inhibition” value was inactive: -8.3%.
With `CC1CC(C)CN(C(=O)c2ccc3c(c2NCCO)C(=O)c2ccccc2C3=O)C1` (centres undefined) the Potency was inconclusive: 17.8 µM [fluorescent, side channel, partial curve].
With `O=C(Nc1ccccc1NS(=O)(=O)c1ccc(F)cc1)C1CCCC1` the Potency was inconclusive: 7.94 µM [quencher, side channel, partial curve].
`Cc1[nH]n(-c2ccc(Cl)cc2)c(=O)c1C=Nc1ccc(S(=O)(=O)N2CCOCC2)cc1` was tested, and the Potency was inconclusive: 15.8 µM [quencher, side channel, partial curve].
`COc1cc(CCC(=O)NCc2ccc(Cl)cc2)cc(OC)c1OC` was tested, and the Potency was inconclusive: 25.1 µM [inhibitor, partial curve].
`CN(C)c1ccc(C2/C(=C(/O)c3ccc(Br)cc3)C(=O)C(=O)N2C)cc1` (centres undefined) was tested, and the Potency was inconclusive: 0.708 µM [inhibitor, full curve, poor fit].
`CCC(C)C(=O)Nc1nc(C)c(-c2csc(Nc3ccccc3OC)n2)s1` (centres undefined) was tested, and the Potency was inconclusive: 11.2 µM [quencher, side channel, partial curve].
`CC(C)c1ccc(OCC(=O)N2CCN(c3ccccn3)CC2)c(Br)c1` was tested, and the Potency was inconclusive: 28.2 µM [fluorescent, side channel, single point].
With `CC(C)(C)OC(=O)CC[C@@H](C(=O)N1CCN(C(=O)OC(C)(C)C)CC1)n1cc(C(Cc2ccc(O)cc2)NC(=O)OC(C)(C)C)nn1` (some centres undefined) the Potency was inconclusive: 4.47 µM [fluorescent, side channel, full curve].
With `Fc1ccccc1/C=N/Nc1ncnc2ccccc12` the Potency was inconclusive: 25.1 µM [quencher, side channel, single point].
With `COc1ccc2c(c1)Cc1sc(NC(=O)c3ccccc3)nc1-2` the Potency was inconclusive: 25.1 µM [quencher, side channel, partial curve].
`CC(C)(CCl)C(=O)Nc1ccc(Sc2ccc(F)cc2)cc1` was tested, and the Potency was inconclusive: 7.08 µM [quencher, side channel, full curve, poor fit].
`COc1cc(/C=N/NC(=O)c2cc3c(ccc4ccccc43)o2)cc(OC)c1O` was tested, and the Potency was inconclusive: 14.1 µM [quencher, side channel, partial curve].
For `CN1CC(=O)N(CC(=O)N2CCC(Cc3ccccc3)CC2)C1=O`, the Potency was inconclusive: 28.2 µM [fluorescent, side channel, single point].
In the case of `CCc1ccc(S(=O)(=O)/N=C2\C=C(Nc3ccc(O)cc3)C(=O)c3ccccc32)cc1`, the Potency is reported as inconclusive: 12.6 µM [quencher, side channel, partial curve].
For `Cc1ccc2c(c1)c1c(n2C)-c2[nH]ncc2CC1`, the Potency was inconclusive: 31.6 µM [quencher, side channel, single point].
In the case of `O=C(OCc1ccc2c(c1)OCO2)c1cccc(S(=O)(=O)N2CCCCC2)c1`, the “FP activity change, negative = inhibition” value is reported as inactive: -4.92%.
In the case of `Oc1ccc(Br)cc1/C=N/Nc1ncc(-c2ccccc2)cn1`, the Potency is reported as inconclusive: 15.8 µM [quencher, side channel, partial curve].
In the case of `O=C1CCCC2=C1C(c1ccccc1)NC(=S)N2` (centres undefined), the Potency is reported as inconclusive: 35.5 µM [fluorescent, side channel, single point].
With `O=C(NCCS(=O)(=O)N1CCN(c2ccccc2F)CC1)c1cc(=O)c2ccccc2o1` the Potency was inconclusive: 12.6 µM [inhibitor, partial curve].
For `CC(OC(=O)c1nc(-c2ccccc2)n(-c2ccccc2)n1)C(=O)Nc1cc(Cl)cc(Cl)c1` (centres undefined), the Potency was inconclusive: 4.47 µM [inhibitor, full curve, poor fit].
With `CC1=NN(C(=O)Cc2ccccc2)C(O)(c2ccccc2)C1` (centres undefined) the Potency was inconclusive: 22.4 µM [fluorescent, side channel, single point].
With `C(#Cc1ccccc1)C[N+]1(CC#Cc2cccc3ccccc23)CCCC1` the Potency was inconclusive: 7.94 µM [fluorescent, side channel, full curve, poor fit].
In the case of `COc1ccccc1-c1cc(C(F)(F)F)nc(N2CCOCC2)n1`, the Potency is reported as inconclusive: 39.8 µM [fluorescent, side channel, single point].
For `NNC(=O)CN1C(=O)Nc2ccc(Cl)cc2C1c1ccccc1` (centres undefined), the Potency was inconclusive: 17.8 µM [fluorescent, side channel, partial curve].
In the case of `Cc1nc(Nc2ccc(S(N)(=O)=O)cc2)sc1C(=O)Nc1ccccc1`, the Potency is reported as inconclusive: 14.1 µM [quencher, side channel, partial curve].
In the case of `CC(C)=CCC/C(C)=C/CO/N=C1/C[C@@H](O)[C@@H](O)[C@@H]2[C@@H]3C(=O)N(Cc4ccccc4)C(=O)[C@H]3CC[C@@H]12`, the FP activity change, negative = inhibition is reported as inactive: 13.5% [at 11.7 µM].
`O=C(CCc1ccccc1)Nc1ccc(F)c([N+](=O)[O-])c1` was tested, and the Potency was inconclusive: 12.6 µM [quencher, side channel, partial curve].
`COc1ccc(NC(=O)c2cccc3c(Br)cccc23)cc1` was tested, and the Potency was inconclusive: 35.5 µM [inhibitor, single point].
For `CC(C)(C)OC(=O)NNc1c2ccccc2nc2ccccc12`, the Potency was inconclusive: 22.4 µM [quencher, side channel, partial curve].
`Cc1ccc(OCC(=O)NNc2c3ccccc3nc3ccccc23)cc1` was tested, and the Potency was inconclusive: 39.8 µM [quencher, side channel, single point].
In the case of `C/C(=N\Nc1cccc2cccnc12)c1ccc(N)cc1`, the Potency is reported as inconclusive: 31.6 µM [quencher, side channel, partial curve].
`OCCN1CCN(CCCN2c3ccccc3Sc3ccc(Cl)cc32)CC1` was tested, and the Potency was inconclusive: 12.6 µM [fluorescent, side channel, partial curve].
For `Cc1cccc(C)c1NC(=O)COC(=O)c1ccc2[nH]c3c(c2c1)CCCC3`, the Potency was inconclusive: 3.16 µM [quencher, side channel, full curve, poor fit].
For `Brc1ccc(Nc2nc3ccccc3n3nnnc23)cc1`, the Potency was inconclusive: 7.94 µM [quencher, side channel, partial curve].
In the case of `CC(=O)N1CCc2c(sc(NC(=O)c3ccc([N+](=O)[O-])o3)c2C#N)C1`, the Potency is reported as inconclusive: 22.4 µM [quencher, side channel, partial curve].
In the case of `O=C(CC(=O)N/N=C\c1ccc(F)cc1)NCCc1ccccc1`, the Potency is reported as inconclusive: 35.5 µM [fluorescent, side channel, single point].
`COc1ccc(C(CNC(=O)COc2cc(C)c(Cl)c(C)c2)N2CCCCC2)cc1` (centres undefined) was tested, and the Potency was inconclusive: 10 µM [inhibitor, partial curve].
In the case of `O=C(COC(=O)c1ccncc1)Nc1cccc(Cl)c1`, the Potency is reported as inconclusive: 28.2 µM [quencher, side channel, partial curve].
For `COc1cccc(-c2cn(-c3cccc(C(F)(F)F)c3)c(=S)[nH]2)c1`, the Potency was inconclusive: 35.5 µM [fluorescent, side channel, single point].
`Cc1[nH]n(C(N)=S)c(=O)c1N=Nc1ccc2ccccc2c1` was tested, and the Potency was inconclusive: 14.1 µM [quencher, side channel, partial curve].
For `C=CCSc1nc2ccsc2c(=O)n1-c1ccccc1`, the Potency was inconclusive: 39.8 µM [fluorescent, side channel, single point].
